# Results: the supplement of paper PMC8728848
# The list shows a part of the results.
# B1: HPA (Helix pomatia), Q2F1K8 (protein)
# chain: MQAFYSGLLLLCVVAFAAAQRVQSGKIDCGNDAGWAKVPSDDPGRDNTRELAKNITFASPYCRPPVVLLSITQLDVEQSQNLRVIARLYSVSPTGFKASCYTWHNTKVYSMSISWISIENY
# How the values were obtained:
# Assay in all cases: glycan array binding signal (z-score within array); higher = stronger binding
# Conditions in all cases: glycan notation: IUPAC condensed, linker removed
# [1] = biological target: Fuc(a1-2)Gal(b1-4)GlcNAc(b1-2)[Fuc(a1-2)Gal(b1-4)GlcNAc(b1-4)]Man(a1-3)[Fuc(a1-2)Gal(b1-4)GlcNAc(b1-2)Man(a1-6)]Man(b1-4)GlcNAc(b1-4)GlcNAc
# Method in brief: (§1)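 Glycan array data were curated from 3228 arrays in the Consortium for Functional Glycomics database and kept only where the protein sequence was available. Glycan names were converted to IUPAC-condensed notation, and columns mapping to the same glycan were averaged. The binding signal is a within-array Z-score, averaged across arrays of the same protein sequence at different concentrations or buffers and across linkers. Negative Z-scores can be read as non-binding.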
# [2] = biological target: Fuc(a1-2)Gal(b1-4)GlcNAc(b1-3)Gal(b1-4)GlcNAc
# Method in brief: as §1
# [3] = biological target: Fuc(a1-2)Gal(b1-4)GlcNAc(b1-3)Gal(b1-4)GlcNAc(b1-2)Man(a1-3)[Fuc(a1-2)Gal(b1-4)GlcNAc(b1-3)Gal(b1-4)GlcNAc(b1-2)Man(a1-6)]Man(b1-4)GlcNAc(b1-4)GlcNAc
# Method in brief: as §1
# [4] = biological target: Fuc(a1-2)Gal(b1-4)GlcNAc(b1-3)Gal(b1-4)GlcNAc(b1-3)Gal(b1-4)GlcNAc
# Method in brief: as §1
# [5] = biological target: Fuc(a1-2)Gal(b1-4)GlcNAc(b1-3)GalNAc
# Method in brief: as §1
# [6] = biological target: Fuc(a1-2)Gal(b1-4)GlcNAc(b1-3)[Fuc(a1-2)Gal(b1-4)GlcNAc(b1-6)]GalNAc
# Method in brief: as §1
# [7] = biological target: Fuc(a1-2)Gal(b1-4)GlcNAc(b1-3)[Fuc(a1-3)[Gal(b1-4)]GlcNAc(b1-6)]Gal(b1-4)Glc
# Method in brief: as §1
# [8] = biological target: Fuc(a1-2)Gal(b1-4)GlcNAc(b1-6)GalNAc
# Method in brief: as §1
# [9] = biological target: Fuc(a1-2)Gal(b1-4)GlcNAc6S
# Method in brief: as §1
# [10] = biological target: Fuc(a1-2)Gal(b1-4)[Fuc(a1-3)]GlcNAc
# Method in brief: as §1
# [11] = biological target: Fuc(a1-2)Gal(b1-4)[Fuc(a1-3)]GlcNAc(b1-2)Man(a1-3)[Fuc(a1-2)Gal(b1-4)[Fuc(a1-3)]GlcNAc(b1-2)Man(a1-6)]Man(b1-4)GlcNAc(b1-4)GlcNAc
# Method in brief: as §1
# [12] = biological target: Fuc(a1-2)Gal(b1-4)[Fuc(a1-3)]GlcNAc(b1-2)Man(a1-3)[Fuc(a1-2)Gal(b1-4)[Fuc(a1-3)]GlcNAc(b1-2)Man(a1-6)]Man(b1-4)GlcNAc(b1-4)[Fuc(a1-6)]GlcNAc
# Method in brief: as §1
# [13] = biological target: Fuc(a1-2)Gal(b1-4)[Fuc(a1-3)]GlcNAc(b1-2)[Fuc(a1-2)Gal(b1-4)[Fuc(a1-3)]GlcNAc(b1-4)]Man(a1-3)[Fuc(a1-2)Gal(b1-4)[Fuc(a1-3)]GlcNAc(b1-2)Man(a1-6)]Man(b1-4)GlcNAc(b1-4)GlcNAc
# Method in brief: as §1
# [14] = biological target: Fuc(a1-2)Gal(b1-4)[Fuc(a1-3)]GlcNAc(b1-3)Gal(b1-4)[Fuc(a1-3)]GlcNAc
# Method in brief: as §1
# [15] = biological target: Fuc(a1-2)Gal(b1-4)[Fuc(a1-3)]GlcNAc(b1-3)Gal(b1-4)[Fuc(a1-3)]GlcNAc(b1-3)Gal(b1-4)[Fuc(a1-3)]GlcNAc
# Method in brief: as §1
# [16] = biological target: Fuc(a1-2)Gal(b1-4)[Fuc(a1-3)]GlcNAc(b1-3)GalNAc
# Method in brief: as §1
# [17] = biological target: Fuc(a1-2)Gal(b1-4)[Fuc(a1-3)]GlcNAc(b1-3)[Neu5Ac(a2-6)Gal(b1-4)GlcNAc(b1-6)]Gal(b1-4)Glc
# Method in brief: as §1
# [18] = biological target: Fuc(a1-2)Gal3S(b1-4)GlcNAc
# Method in brief: as §1
# [19] = biological target: Fuc(a1-2)Gal6S(b1-3)GlcNAc
# Method in brief: as §1
# [20] = biological target: Fuc(a1-2)Gal6S(b1-3)GlcNAc6S
# Method in brief: as §1
# Fuc(a1-2)Gal6S(b1-4)Glc = biological target: Fuc(a1-2)Gal6S(b1-4)Glc
# Method in brief: as §1
# [21] = biological target: Fuc(a1-2)Gal6S(b1-4)Glc6S
# Method in brief: as §1
# [22] = biological target: Fuc(a1-2)Gal6S(b1-4)GlcNAc
# Method in brief: as §1
# Fuc(a1-2)GlcNAc = biological target: Fuc(a1-2)GlcNAc
# Method in brief: as §1
# Fuc(a1-2)[Gal(a1-3)]Gal = biological target: Fuc(a1-2)[Gal(a1-3)]Gal
# Method in brief: as §1
# [23] = biological target: Fuc(a1-2)[Gal(a1-3)]Gal(b1-3)GalNAc
# Method in brief: as §1
# [24] = biological target: Fuc(a1-2)[Gal(a1-3)]Gal(b1-3)GalNAc(b1-3)Gal(a1-4)Gal(b1-4)Glc
# Method in brief: as §1
# [25] = biological target: Fuc(a1-2)[Gal(a1-3)]Gal(b1-3)GlcNAc
# Method in brief: as §1
# [26] = biological target: Fuc(a1-2)[Gal(a1-3)]Gal(b1-3)GlcNAc(b1-2)Man(a1-3)[Fuc(a1-2)[Gal(a1-3)]Gal(b1-3)GlcNAc(b1-2)Man(a1-6)]Man(b1-4)GlcNAc(b1-4)GlcNAc
# Method in brief: as §1
# [27] = biological target: Fuc(a1-2)[Gal(a1-3)]Gal(b1-3)GlcNAc(b1-2)Man(a1-3)[Fuc(a1-2)[Gal(a1-3)]Gal(b1-3)GlcNAc(b1-2)Man(a1-6)]Man(b1-4)GlcNAc(b1-4)[Fuc(a1-6)]GlcNAc
# Method in brief: as §1
# [28] = biological target: Fuc(a1-2)[Gal(a1-3)]Gal(b1-3)GlcNAc(b1-3)GalNAc
# Method in brief: as §1
# [29] = biological target: Fuc(a1-2)[Gal(a1-3)]Gal(b1-3)GlcNAc(b1-6)GalNAc
# Method in brief: as §1
# [30] = biological target: Fuc(a1-2)[Gal(a1-3)]Gal(b1-4)Glc
# Method in brief: as §1
# [31] = biological target: Fuc(a1-2)[Gal(a1-3)]Gal(b1-4)GlcNAc
# Method in brief: as §1
# [32] = biological target: Fuc(a1-2)[Gal(a1-3)]Gal(b1-4)GlcNAc(b1-2)Man
# Method in brief: as §1
# [33] = biological target: Fuc(a1-2)[Gal(a1-3)]Gal(b1-4)GlcNAc(b1-2)Man(a1-3)[Fuc(a1-2)[Gal(a1-3)]Gal(b1-4)GlcNAc(b1-2)Man(a1-6)]Man(b1-4)GlcNAc(b1-4)GlcNAc
# Method in brief: as §1
# [34] = biological target: Fuc(a1-2)[Gal(a1-3)]Gal(b1-4)GlcNAc(b1-2)Man(a1-3)[Fuc(a1-2)[Gal(a1-3)]Gal(b1-4)GlcNAc(b1-2)Man(a1-6)]Man(b1-4)GlcNAc(b1-4)[Fuc(a1-6)]GlcNAc
# Method in brief: as §1
# [35] = biological target: Fuc(a1-2)[Gal(a1-3)]Gal(b1-4)GlcNAc(b1-3)GalNAc
# Method in brief: as §1
# [36] = biological target: Fuc(a1-2)[Gal(a1-3)]Gal(b1-4)GlcNAc(b1-6)GalNAc
# Method in brief: as §1
# [37] = biological target: Fuc(a1-2)[Gal(a1-3)]Gal(b1-4)[Fuc(a1-3)]Glc
# Method in brief: as §1
# [38] = biological target: Fuc(a1-2)[Gal(a1-3)]Gal(b1-4)[Fuc(a1-3)]GlcNAc
# Method in brief: as §1
# [39] = biological target: Fuc(a1-2)[Gal(a1-3)]Gal(b1-4)[Fuc(a1-3)]GlcNAc(b1-3)GalNAc
# Method in brief: as §1
# [40] = biological target: Fuc(a1-2)[Gal(a1-4)]Gal(b1-4)GlcNAc
# Method in brief: as §1
# [41] = biological target: Fuc(a1-2)[GalNAc(a1-3)]Gal
# Method in brief: as §1
# [42] = biological target: Fuc(a1-2)[GalNAc(a1-3)]Gal(b1-3)GalNAc(a1-3)[Fuc(a1-2)]Gal(b1-4)GlcNAc
# Method in brief: as §1
binder,measurement,setting,value
B1,glycan array binding signal (z-score),[1],-0.075
same,glycan array binding signal (z-score),[2],-0.16
same,glycan array binding signal (z-score),[3],-0.089
same,glycan array binding signal (z-score),[4],0.219
same,glycan array binding signal (z-score),[5],-0.033
same,glycan array binding signal (z-score),[6],-0.177
same,glycan array binding signal (z-score),[7],-0.081
same,glycan array binding signal (z-score),[8],0.162
same,glycan array binding signal (z-score),[9],-0.322
same,glycan array binding signal (z-score),[10],-0.109
same,glycan array binding signal (z-score),[11],2.06
same,glycan array binding signal (z-score),[12],-0.012
same,glycan array binding signal (z-score),[13],-0.15
same,glycan array binding signal (z-score),[14],-0.006
same,glycan array binding signal (z-score),[15],0.116
same,glycan array binding signal (z-score),[16],0.708
same,glycan array binding signal (z-score),[17],-0.323
same,glycan array binding signal (z-score),[18],-0.228
same,glycan array binding signal (z-score),[19],-0.173
same,glycan array binding signal (z-score),[20],-0.277
same,glycan array binding signal (z-score),Fuc(a1-2)Gal6S(b1-4)Glc,-0.224
same,glycan array binding signal (z-score),[21],0.113
same,glycan array binding signal (z-score),[22],0.582
same,glycan array binding signal (z-score),Fuc(a1-2)GlcNAc,-0.295
same,glycan array binding signal (z-score),Fuc(a1-2)[Gal(a1-3)]Gal,-0.355
same,glycan array binding signal (z-score),[23],-0.303
same,glycan array binding signal (z-score),[24],-0.297
same,glycan array binding signal (z-score),[25],-0.103
same,glycan array binding signal (z-score),[26],-0.13
same,glycan array binding signal (z-score),[27],-0.17
same,glycan array binding signal (z-score),[28],-0.113
same,glycan array binding signal (z-score),[29],-0.164
same,glycan array binding signal (z-score),[30],-0.333
same,glycan array binding signal (z-score),[31],-0.193
same,glycan array binding signal (z-score),[32],-0.241
same,glycan array binding signal (z-score),[33],-0.176
same,glycan array binding signal (z-score),[34],-0.122
same,glycan array binding signal (z-score),[35],0.168
same,glycan array binding signal (z-score),[36],-0.357
same,glycan array binding signal (z-score),[37],-0.172
same,glycan array binding signal (z-score),[38],-0.009
same,glycan array binding signal (z-score),[39],0.007
same,glycan array binding signal (z-score),[40],-0.138
same,glycan array binding signal (z-score),[41],1.96
same,glycan array binding signal (z-score),[42],2.22
